From PubChem BioAssay (NCI)
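Five compound concentrations were applied to cells in 96-well plates for 48 hours; endpoints were derived by simple linear interpolation of the resulting dose-response curve. GI50 is the concentration that inhibits growth by half. At the TGI there is no net growth.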

Tested on: NCI-H322M lung
Assay: NCI tumour cell line growth inhibition, 48 h

`CCOc1ccc(/C=N/NC(=O)Cn2nc(Cc3ccccc3)c3onc(C)c3c2=O)cc1` showed a GI50 greater than 100 µM and a TGI greater than 100 µM.

Compound `Cc1cc2c(c(O)c1Br)-c1ncoc1C(=O)[C@]1(C)CC[C@H](C(C)C)[C@H]21` has a GI50 of 8.85 µM and a TGI of 57.7 µM.
